{"source": "a collection of fitness landscapes (doi:10.1016/j.celrep.2020.107928)", "parents": {"B1": {"name": "Caulobacter ParB omega fusion; a variant is named by its letters at X, in order, B8GW30 (parent)", "chain": "MESVVVGEPGMSEGRRGLGRGLSALLGEVDAAPAQAPGEQLGGSREAPIEILQRNPDQPRRTFREEDLEDLSNSIREKGVLQPILVRPSPDTAGEYQIVAGERAWRAAQRAGLKTVPIMVRELDDLAVLEIGIIENVQRADLNVLEEALSYKVLMEKFERTQENIAQTIGKSXSHVANXMRLLXLPDEVQSYLVSGELTAXHARAIAAAADPVALAKQIIEGGLSVRETEALARKAPNLSAGKSKGGRPPRVKDTDTQALESDLSSVLGLDVSIDHRGSTGTLTITYATLEQLDDLCNRLTRGI"}}, "note": "Over roughly 81,000 sequences, “one-hybrid fitness for binding parS DNA” has its median near -0.17; the highest 2% begin near 0.51. This is one part of the list."}
{"variants_of": "B1", "assay": "one-hybrid fitness for binding parS DNA (scaled: cognate 1, non-cognate 0); higher = stronger binding", "conditions": "with parS DNA site", "how_it_was_run": "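Caulobacter ParB libraries with four specificity codons randomised were screened by bacterial one-hybrid selection in the E. coli USO strain, using a HIS3 reporter whose site lies 19 bp from the promoter. Selection ran for 48 hours at 37°C on M9 lacking histidine, with 0.1 mM IPTG and 5 mM 3-AT. Plasmids were Illumina-sequenced before and after selection, three replicate libraries were pooled, and variants with under 10 reads were dropped. Fitness is the log change in each variant's read ratio to wild type, rescaled against the cognate and non-cognate sites.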"}
{"variant": "IVRT", "one-hybrid fitness for binding parS DNA": "≤ 0.2"}
{"variant": "WDLG", "one-hybrid fitness for binding parS DNA": "≤ 0.2"}
{"variant": "GQYA", "one-hybrid fitness for binding parS DNA": "≤ 0.2"}
{"variant": "HQCS", "one-hybrid fitness for binding parS DNA": "≤ 0.2"}
{"variant": "INKE", "one-hybrid fitness for binding parS DNA": "≤ 0.2"}
{"variant": "THMI", "one-hybrid fitness for binding parS DNA": "≤ 0.2"}
{"variant": "CRLW", "one-hybrid fitness for binding parS DNA": "≤ 0.2"}
{"variant": "RDDS", "one-hybrid fitness for binding parS DNA": "≤ 0.2"}
{"variant": "NPRL", "one-hybrid fitness for binding parS DNA": "≤ 0.2"}
{"variant": "HEAY", "one-hybrid fitness for binding parS DNA": "≤ 0.2"}
{"variant": "GVHD", "one-hybrid fitness for binding parS DNA": "≤ 0.2"}
{"variant": "NPDE", "one-hybrid fitness for binding parS DNA": "≤ 0.2"}
{"variant": "HHSN", "one-hybrid fitness for binding parS DNA": "≤ 0.2"}
{"variant": "KKKW", "one-hybrid fitness for binding parS DNA": "≤ 0.2"}
{"variant": "EVSS", "one-hybrid fitness for binding parS DNA": "≤ 0.2"}
{"variant": "NTIC", "one-hybrid fitness for binding parS DNA": "≤ 0.2"}
{"variant": "NLHR", "one-hybrid fitness for binding parS DNA": "≤ 0.2"}
{"variant": "CHET", "one-hybrid fitness for binding parS DNA": "≤ 0.2"}
{"variant": "GPRY", "one-hybrid fitness for binding parS DNA": "≤ 0.2"}
{"variant": "ERKS", "one-hybrid fitness for binding parS DNA": "≤ 0.2"}
{"variant": "SFSP", "one-hybrid fitness for binding parS DNA": "≤ 0.2"}
{"variant": "AVLC", "one-hybrid fitness for binding parS DNA": "≤ 0.2"}
{"variant": "KRQT", "one-hybrid fitness for binding parS DNA": "≤ 0.2"}
{"variant": "YLPQ", "one-hybrid fitness for binding parS DNA": "≤ 0.2"}
{"variant": "SEPE", "one-hybrid fitness for binding parS DNA": "≤ 0.2"}
{"variant": "LTLN", "one-hybrid fitness for binding parS DNA": "≤ 0.2"}
{"variant": "VGRS", "one-hybrid fitness for binding parS DNA": "≤ 0.2"}
{"variant": "RDTE", "one-hybrid fitness for binding parS DNA": "≤ 0.2"}
{"variant": "VHCW", "one-hybrid fitness for binding parS DNA": "≤ 0.2"}
{"variant": "TTGW", "one-hybrid fitness for binding parS DNA": "≤ 0.2"}
{"variant": "QVGI", "one-hybrid fitness for binding parS DNA": "≤ 0.2"}
{"variant": "ADDY", "one-hybrid fitness for binding parS DNA": "≤ 0.2"}
{"variant": "NDQM", "one-hybrid fitness for binding parS DNA": "≤ 0.2"}
{"variant": "MSLQ", "one-hybrid fitness for binding parS DNA": "≤ 0.2"}
{"variant": "IKAG", "one-hybrid fitness for binding parS DNA": "≤ 0.2"}
{"variant": "NVHC", "one-hybrid fitness for binding parS DNA": "≤ 0.2"}
{"variant": "LKLM", "one-hybrid fitness for binding parS DNA": "≤ 0.2"}
{"variant": "RKNK", "one-hybrid fitness for binding parS DNA": "≤ 0.2"}
{"variant": "IVTV", "one-hybrid fitness for binding parS DNA": "≤ 0.2"}
{"variant": "KPPR", "one-hybrid fitness for binding parS DNA": "≤ 0.2"}
{"variant": "QYFT", "one-hybrid fitness for binding parS DNA": "≤ 0.2"}
{"variant": "FMEL", "one-hybrid fitness for binding parS DNA": "≤ 0.2"}
{"variant": "MLLT", "one-hybrid fitness for binding parS DNA": "≤ 0.2"}
{"variant": "MAHK", "one-hybrid fitness for binding parS DNA": "≤ 0.2"}
{"variant": "SKSM", "one-hybrid fitness for binding parS DNA": "≤ 0.2"}
{"variant": "KIRE", "one-hybrid fitness for binding parS DNA": "≤ 0.2"}
{"variant": "SHRI", "one-hybrid fitness for binding parS DNA": "≤ 0.2"}
{"variant": "SLLS", "one-hybrid fitness for binding parS DNA": "≤ 0.2"}
{"variant": "WHKR", "one-hybrid fitness for binding parS DNA": "≤ 0.2"}
{"variant": "MRSP", "one-hybrid fitness for binding parS DNA": "≤ 0.2"}
{"variant": "TEFE", "one-hybrid fitness for binding parS DNA": "≤ 0.2"}
{"variant": "SMSQ", "one-hybrid fitness for binding parS DNA": "≤ 0.2"}
{"variant": "AMFT", "one-hybrid fitness for binding parS DNA": "≤ 0.2"}
{"variant": "HNRS", "one-hybrid fitness for binding parS DNA": "≤ 0.2"}
{"variant": "MYVS", "one-hybrid fitness for binding parS DNA": "≤ 0.2"}
{"variant": "FWRT", "one-hybrid fitness for binding parS DNA": "≤ 0.2"}
{"variant": "QWKY", "one-hybrid fitness for binding parS DNA": "≤ 0.2"}
{"variant": "LTLE", "one-hybrid fitness for binding parS DNA": "≤ 0.2"}
{"variant": "PHFL", "one-hybrid fitness for binding parS DNA": "≤ 0.2"}
{"variant": "KTQE", "one-hybrid fitness for binding parS DNA": "≤ 0.2"}
{"variant": "HNLP", "one-hybrid fitness for binding parS DNA": "≤ 0.2"}
{"variant": "KRNW", "one-hybrid fitness for binding parS DNA": "≤ 0.2"}
{"variant": "APGK", "one-hybrid fitness for binding parS DNA": "≤ 0.2"}
{"variant": "TLRV", "one-hybrid fitness for binding parS DNA": "≤ 0.2"}
{"variant": "YIGL", "one-hybrid fitness for binding parS DNA": "≤ 0.2"}
{"variant": "VFNG", "one-hybrid fitness for binding parS DNA": "≤ 0.2"}
{"variant": "LTCT", "one-hybrid fitness for binding parS DNA": "≤ 0.2"}
{"variant": "FNHT", "one-hybrid fitness for binding parS DNA": "≤ 0.2"}
{"variant": "IKCW", "one-hybrid fitness for binding parS DNA": "≤ 0.2"}
{"variant": "QKFF", "one-hybrid fitness for binding parS DNA": "≤ 0.2"}
{"variant": "HFME", "one-hybrid fitness for binding parS DNA": "≤ 0.2"}
{"variant": "GPRN", "one-hybrid fitness for binding parS DNA": "≤ 0.2"}
{"variant": "KKDH", "one-hybrid fitness for binding parS DNA": "≤ 0.2"}
{"variant": "IASS", "one-hybrid fitness for binding parS DNA": "≤ 0.2"}
{"variant": "VYLR", "one-hybrid fitness for binding parS DNA": "≤ 0.2"}
{"variant": "RWCL", "one-hybrid fitness for binding parS DNA": "≤ 0.2"}
{"variant": "NHSI", "one-hybrid fitness for binding parS DNA": "≤ 0.2"}
{"variant": "SQSR", "one-hybrid fitness for binding parS DNA": "≤ 0.2"}
{"variant": "YCKL", "one-hybrid fitness for binding parS DNA": "≤ 0.2"}
{"variant": "GAEV", "one-hybrid fitness for binding parS DNA": "≤ 0.2"}
{"variant": "MDSV", "one-hybrid fitness for binding parS DNA": "≤ 0.2"}
{"variant": "PTPE", "one-hybrid fitness for binding parS DNA": "≤ 0.2"}
{"variant": "HRFD", "one-hybrid fitness for binding parS DNA": "≤ 0.2"}
{"variant": "SLSD", "one-hybrid fitness for binding parS DNA": "≤ 0.2"}
{"variant": "KNLC", "one-hybrid fitness for binding parS DNA": "≤ 0.2"}
{"variant": "KPHT", "one-hybrid fitness for binding parS DNA": "≤ 0.2"}
{"variant": "NNTW", "one-hybrid fitness for binding parS DNA": "≤ 0.2"}
{"variant": "IVSS", "one-hybrid fitness for binding parS DNA": 0.205}
{"variant": "QLLS", "one-hybrid fitness for binding parS DNA": "≤ 0.2"}
{"variant": "EFMW", "one-hybrid fitness for binding parS DNA": "≤ 0.2"}
{"variant": "VVPG", "one-hybrid fitness for binding parS DNA": "≤ 0.2"}
{"variant": "SCYP", "one-hybrid fitness for binding parS DNA": "≤ 0.2"}
{"variant": "RLNV", "one-hybrid fitness for binding parS DNA": "≤ 0.2"}
{"variant": "KMRL", "one-hybrid fitness for binding parS DNA": "≤ 0.2"}
{"variant": "GSLN", "one-hybrid fitness for binding parS DNA": "≤ 0.2"}
{"variant": "ITNA", "one-hybrid fitness for binding parS DNA": "≤ 0.2"}
{"variant": "NTLM", "one-hybrid fitness for binding parS DNA": "≤ 0.2"}
{"variant": "RYPV", "one-hybrid fitness for binding parS DNA": "≤ 0.2"}
{"variant": "LQAS", "one-hybrid fitness for binding parS DNA": "≤ 0.2"}
{"variant": "PLLA", "one-hybrid fitness for binding parS DNA": "≤ 0.2"}
{"variant": "FTDL", "one-hybrid fitness for binding parS DNA": "≤ 0.2"}
{"variant": "TVVS", "one-hybrid fitness for binding parS DNA": "≤ 0.2"}
{"variant": "SKCT", "one-hybrid fitness for binding parS DNA": "≤ 0.2"}
{"variant": "ASKA", "one-hybrid fitness for binding parS DNA": "≤ 0.2"}
{"variant": "QYGC", "one-hybrid fitness for binding parS DNA": "≤ 0.2"}
{"variant": "SSCF", "one-hybrid fitness for binding parS DNA": "≤ 0.2"}
{"variant": "ISKC", "one-hybrid fitness for binding parS DNA": "≤ 0.2"}
{"variant": "PGKH", "one-hybrid fitness for binding parS DNA": "≤ 0.2"}
{"variant": "LRLS", "one-hybrid fitness for binding parS DNA": "≤ 0.2"}
{"variant": "NNDR", "one-hybrid fitness for binding parS DNA": "≤ 0.2"}
{"variant": "QAAC", "one-hybrid fitness for binding parS DNA": "≤ 0.2"}
{"variant": "IQPF", "one-hybrid fitness for binding parS DNA": "≤ 0.2"}
{"variant": "AWSD", "one-hybrid fitness for binding parS DNA": "≤ 0.2"}
{"variant": "GNLM", "one-hybrid fitness for binding parS DNA": "≤ 0.2"}
{"variant": "ILES", "one-hybrid fitness for binding parS DNA": "≤ 0.2"}
{"variant": "PWHS", "one-hybrid fitness for binding parS DNA": "≤ 0.2"}
{"variant": "EAIC", "one-hybrid fitness for binding parS DNA": "≤ 0.2"}
{"variant": "LDYL", "one-hybrid fitness for binding parS DNA": "≤ 0.2"}
{"variant": "QFNM", "one-hybrid fitness for binding parS DNA": "≤ 0.2"}
{"variant": "NWAG", "one-hybrid fitness for binding parS DNA": "≤ 0.2"}
{"variant": "ASEA", "one-hybrid fitness for binding parS DNA": "≤ 0.2"}
{"variant": "RYEF", "one-hybrid fitness for binding parS DNA": 0.236}
{"variant": "LSQI", "one-hybrid fitness for binding parS DNA": "≤ 0.2"}
{"variant": "HNLM", "one-hybrid fitness for binding parS DNA": "≤ 0.2"}
{"variant": "QWMT", "one-hybrid fitness for binding parS DNA": "≤ 0.2"}
{"variant": "DHHF", "one-hybrid fitness for binding parS DNA": "≤ 0.2"}
{"variant": "DLRA", "one-hybrid fitness for binding parS DNA": "≤ 0.2"}
{"variant": "SDNR", "one-hybrid fitness for binding parS DNA": "≤ 0.2"}
{"variant": "LVGP", "one-hybrid fitness for binding parS DNA": "≤ 0.2"}
{"variant": "CGVG", "one-hybrid fitness for binding parS DNA": "≤ 0.2"}
{"variant": "YVMV", "one-hybrid fitness for binding parS DNA": "≤ 0.2"}
{"variant": "TSNT", "one-hybrid fitness for binding parS DNA": "≤ 0.2"}
{"variant": "KSMH", "one-hybrid fitness for binding parS DNA": "≤ 0.2"}
{"variant": "RSRE", "one-hybrid fitness for binding parS DNA": "≤ 0.2"}
{"variant": "TLWG", "one-hybrid fitness for binding parS DNA": "≤ 0.2"}
{"variant": "HAGS", "one-hybrid fitness for binding parS DNA": "≤ 0.2"}
{"variant": "HLSW", "one-hybrid fitness for binding parS DNA": "≤ 0.2"}
{"variant": "GVPY", "one-hybrid fitness for binding parS DNA": "≤ 0.2"}
{"variant": "MDCE", "one-hybrid fitness for binding parS DNA": "≤ 0.2"}
{"variant": "VGSM", "one-hybrid fitness for binding parS DNA": "≤ 0.2"}
{"variant": "SKEK", "one-hybrid fitness for binding parS DNA": "≤ 0.2"}
{"variant": "EFPC", "one-hybrid fitness for binding parS DNA": "≤ 0.2"}
{"variant": "PSRM", "one-hybrid fitness for binding parS DNA": "≤ 0.2"}
{"variant": "EQQS", "one-hybrid fitness for binding parS DNA": "≤ 0.2"}
{"variant": "RNTQ", "one-hybrid fitness for binding parS DNA": "≤ 0.2"}
{"variant": "TRGG", "one-hybrid fitness for binding parS DNA": "≤ 0.2"}
{"variant": "GILP", "one-hybrid fitness for binding parS DNA": "≤ 0.2"}
{"variant": "HYAR", "one-hybrid fitness for binding parS DNA": "≤ 0.2"}
{"variant": "QAHE", "one-hybrid fitness for binding parS DNA": "≤ 0.2"}
{"variant": "ASNL", "one-hybrid fitness for binding parS DNA": "≤ 0.2"}
{"variant": "QICR", "one-hybrid fitness for binding parS DNA": "≤ 0.2"}
{"variant": "GERF", "one-hybrid fitness for binding parS DNA": "≤ 0.2"}
{"variant": "AKRK", "one-hybrid fitness for binding parS DNA": "≤ 0.2"}
